Measured values published in PubChem BioAssay AID360 (National Center for Advancing Translational Sciences (NCATS), 2006).
About 550 (1.1%) of roughly 48,000 compounds were called active. Inconclusive results (about 4%) are left out. Cut-off read from the data, not from the text of the source: active = potency below about 15 µM; inconclusive = mostly about 16 µM to 33 µM; inactive = weaker than that. This is one part of the list.

The molecules below were run against Lysosomal acid glucosylceramidase (Homo sapiens) (UniProt P04062) (assay: Glucocerebrosidase). Conditions: purified enzyme, resorufin glucoside fluorescence (screen aimed at inhibitors), 20 min.
In short: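 Normal human glucocerebrosidase (0.2 nM final) was assayed with resorufin β-D-glucopyranoside (30 uM final) in 50mM citric acid/KH2PO4, 10mM sodium taurocholate, 0.01% tween-20, pH 5.9. Compounds were titrated; fluorescence (Ex 548, Em 600) read after 20 min at RT.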
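Note: the screen sought inhibitors.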
Potency is the fitted concentration of half-maximal effect.

Chain of UniProt P04062 (P04062 whole entry, looked up): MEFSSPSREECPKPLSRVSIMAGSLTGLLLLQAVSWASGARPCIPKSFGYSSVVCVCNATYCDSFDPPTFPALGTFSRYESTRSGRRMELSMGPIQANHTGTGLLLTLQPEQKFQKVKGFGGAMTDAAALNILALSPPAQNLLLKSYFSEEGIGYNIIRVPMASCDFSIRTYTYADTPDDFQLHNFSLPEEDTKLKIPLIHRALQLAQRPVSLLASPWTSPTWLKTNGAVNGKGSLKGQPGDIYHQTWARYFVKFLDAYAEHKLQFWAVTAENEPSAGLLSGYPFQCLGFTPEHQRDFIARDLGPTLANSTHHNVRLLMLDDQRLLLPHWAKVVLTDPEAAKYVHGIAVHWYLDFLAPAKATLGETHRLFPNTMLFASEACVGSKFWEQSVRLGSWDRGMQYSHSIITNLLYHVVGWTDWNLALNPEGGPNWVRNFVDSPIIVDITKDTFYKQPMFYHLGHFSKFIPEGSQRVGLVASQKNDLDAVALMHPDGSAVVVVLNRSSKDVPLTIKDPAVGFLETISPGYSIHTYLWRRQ

Potency, inactive:
O=C(O)C1CCCCC1C(=O)Nc1ccccc1F (stereo not drawn) > 76.9 µM, COc1ccc(NC(=O)CN(C2CCCCC2)S(C)(=O)=O)cc1OC > 76.9 µM, CCn1nnc(-c2ccccc2NS(=O)(=O)c2ccc(C(=O)OC)cc2)n1 > 76.9 µM, O=C(c1ccco1)N1CCN(C(=O)C2CCN(S(=O)(=O)c3cccs3)CC2)CC1 > 76.9 µM, COc1ccc(N2CCN(CCNC(=O)c3cccn4c(=O)c5ccc(Cl)cc5nc34)CC2)cc1 > 76.9 µM, COC(=O)c1[nH]c(C)c(/C(O)=C2\C(=O)C(=O)N(CCN3CCOCC3)C2c2cccs2)c1C (stereo not drawn) > 76.9 µM, CSc1ccccc1NC(=O)CCn1c(=O)sc2ccccc21 > 76.9 µM, Nc1nc(CSc2n[nH]c(-c3ccccc3)n2)nc(Nc2ccccc2)n1, O=C(O)CCN1CCOCC1 > 76.9 µM, Cc1cc(=O)oc2ccc(OC(=O)c3cccc(S(=O)(=O)N4CCOCC4)c3)cc12 > 76.9 µM, O=C(NCCc1ccccc1)c1ccc(=O)oc1 > 76.9 µM, CCCCCC1CC(CC(=O)O)C(=O)O1 (stereo not drawn) > 76.9 µM, CCC(C)C(NC(=O)c1ccc(Cl)cc1)C(=O)O (stereo not drawn) > 76.9 µM, CCOC(=O)C1C(=O)C=C(c2ccc(OC)cc2)CC1c1ccco1 (stereo not drawn) > 76.9 µM, O=S(=O)(Nc1ccc(N2CCCCC2)cc1)c1cccs1 > 76.9 µM, O=C(COc1ccccc1)Nc1nc2ccccc2[nH]1 > 76.9 µM, Nn1c(CSc2ccccn2)nc2ccccc2c1=O > 76.9 µM, CCOc1ccccc1NC(=O)CSc1nnc(-c2ccco2)n1Cc1ccco1 > 76.9 µM, CNC(=O)C1CC(=O)N(c2ccc(F)c(Cl)c2)C1 (stereo not drawn) > 76.9 µM, CCC(=O)N(CCc1ccccc1C)Cc1cc2cc3c(cc2[nH]c1=O)OCO3 > 76.9 µM, Cc1cc(C)n(-c2nc3ccccc3nc2N2CCN(C(=O)c3ccc(F)cc3)CC2)n1 > 76.9 µM, CCN(CC)C(=O)COc1ccc(Br)cc1Cl > 76.9 µM, O=C(NCCCn1ccnc1)c1cn(Cc2ccc(F)cc2)nn1 > 76.9 µM, O=C(CSc1nnc(-c2cccs2)o1)c1cccs1 > 76.9 µM, COc1ccc(NCc2ccc3c(c2)OCO3)cc1Cl > 76.9 µM, N#Cc1cc2ccccc2nc1SCC(=O)Nc1ccc(S(=O)(=O)N2CCCC2)cc1 > 76.9 µM, CCn1c(SCC(=O)n2c(C)c(C)c3ccccc32)nnc1-c1ccco1 > 76.9 µM, COCCN(C(=O)CNC(=O)c1cccs1)C(C(=O)NC1CCCCC1)c1ccco1 (stereo not drawn) > 76.9 µM, COc1ccccc1N(CC(=O)N1CCCCC1)S(=O)(=O)c1ccccc1 > 76.9 µM, O=C(NCc1ccco1)C(Cc1ccccc1)N1C(=O)C2C3C=CC(C3)C2C1=O (stereo not drawn) > 76.9 µM, CCOC(=O)CNC(=O)c1cnn2cccnc12 > 76.9 µM, CCCc1nnc(NC(=O)CN2C(=O)C3C4C=CC(C4)C3C2=O)s1 (stereo not drawn) > 76.9 µM, Cc1nnc(SCC(=O)c2c(N)n(C)c(=O)n(C)c2=O)n1Cc1ccccc1 > 76.9 µM, O=C(Cn1c(=O)n(Cc2ccc3c(c2)OCO3)c(=O)c2ccccc21)N1CCCc2ccccc21 > 76.9 µM, Cc1cc(C)n(C(=O)C2CCCN2S(=O)(=O)c2ccc(Cl)cc2)n1 (stereo not drawn), Cc1ccc(C(C)n2cc(C(=O)NCc3ccncc3)nn2)cc1 (stereo not drawn) > 76.9 µM, O=C(Nc1ccc2c(c1)oc1ccccc12)C1CC1 > 76.9 µM, O=C(CCCN1C(=O)c2ccccc2C1=O)NCCCN1CCOCC1 > 76.9 µM, Cc1ccc2nc(NC(=O)CN(C)S(=O)(=O)c3cccc4nsnc34)sc2c1 > 76.9 µM, COC(=O)c1ccc(Oc2nc(C)cc(Oc3ccccc3)n2)cc1 > 76.9 µM, Cc1ccc(CNc2ccc(N3CCOCC3)c(C(=O)O)c2)s1, Cc1nn(Cc2ccccc2Cl)c(C)c1N > 76.9 µM, CCOc1ccc(Cc2nc(C)c(CC(=O)N3CCOCC3)c(=O)[nH]2)cc1 > 76.9 µM, CCOC(=O)c1cc2c(=O)n3cccc(C)c3nc2n(CC2CCCO2)c1=NC(C)=O (stereo not drawn) > 76.9 µM, CCOC(=O)N1CCN(S(=O)(=O)c2ccc3c(c2)CCN3C(=O)C2CC2)CC1 > 76.9 µM, OC(c1ccccn1)c1c[nH]c2ccccc12 (stereo not drawn) > 76.9 µM, O=C(Cn1cnc2ccccc21)OCC(=O)N1CCc2ccccc2C1 > 76.9 µM, Cc1ccc(-n2c(=O)cc(NCc3cccnc3)[nH]c2=O)cc1 > 76.9 µM, COc1cc(NC(=O)c2ccco2)c(OC)cc1NC(=O)c1cc(OC)c(OC)c(OC)c1 > 76.9 µM, O=C(COC(=O)C1=COCCO1)NCCCc1ccccc1 > 76.9 µM, COc1cc2c(cc1OC)C1Cc3ccc(OC)c(OC)c3CN1CC2 (stereo not drawn) > 76.9 µM, Cc1ccc(CSc2nnc(-c3cccs3)n2C)cc1 > 76.9 µM, COc1ccc2[nH]c(=O)c(CN(Cc3nnnn3Cc3ccco3)C3CCCCC3)cc2c1, COc1ccc(-c2csc(NC(=O)c3cc(C)on3)c2C#N)cc1OC > 76.9 µM, Cc1nn(CC(=O)Nc2cccnc2N2CCOCC2)c(=O)c2ccccc12 > 76.9 µM, COc1ccc(CCNC(=O)c2c(O)c3c([nH]c2=O)CCCC3)cc1OC > 76.9 µM, C=CCn1c(=O)c2ccccc2n2c(SCc3csc(-c4ccccc4)n3)nnc12 > 76.9 µM, CC(C)COc1ccc(C(=O)NCc2ccco2)cc1 > 76.9 µM, Cc1nc(SCC(=O)Nc2ccnc3ccccc23)n[nH]1 > 76.9 µM, C=CCN1C(=O)C2C(C(=O)NCc3ccccc3)C3C=CC2(O3)C1C(=O)NC(C)(C)C (stereo not drawn) > 76.9 µM, Cc1ccc2c(c1)nnn2C1CCN(CC(=O)Nc2ccc3c(c2)OCCO3)CC1 > 76.9 µM, CN(C)CCCN1C(=O)C(=O)/C(=C(/O)c2ccc(OCc3ccccc3)cc2)C1c1cccnc1 (stereo not drawn) > 76.9 µM, CCOc1ccccc1C(=O)n1nc2nc(C)cc(C)c2c1N > 76.9 µM, CCOC(=O)c1sc(NC(=S)n2cc(C)cn2)c(C(=O)OCC)c1C > 76.9 µM, CNc1oc(-c2ccco2)nc1C#N > 76.9 µM, CCOC(=O)c1c(NC(=O)CSc2nnc(-c3ccco3)o2)sc(C(C)=O)c1C > 76.9 µM, Cc1ccc(NS(=O)(=O)c2ccc3c(c2)c(=O)n(C)c(=O)n3C)cc1F > 76.9 µM, CCn1cc(C(=O)NC2CCC(C)CC2)c(=O)c2cc(S(=O)(=O)N3CCCCC3)ccc21 (stereo not drawn) > 76.9 µM, O=C1c2ccccc2C(=O)N1SC1CCCCC1 > 76.9 µM, O=C(Nc1nccs1)c1cnccn1 > 76.9 µM, COc1cccc(-c2nn3c(-c4cc(C)[nH]n4)nnc3s2)c1 > 76.9 µM, CN(C)c1ccc(CNn2cnnc2)cc1 > 76.9 µM, Cc1cc(S(=O)(=O)NCC(C)C)ccc1OCC(=O)NCc1ccccn1 > 76.9 µM, Cn1c(SCc2ccc(F)cc2)nnc1-c1ccccn1 > 76.9 µM, Cc1ccc(S(=O)(=O)NC(C)(C)CSc2nnc(N)s2)cc1 > 76.9 µM, Cc1ccccc1C(=O)NC1CCN(CC(=O)Nc2nccs2)CC1 > 76.9 µM, C=C(C)CSc1nnc2[nH]c(=O)cc(N)n12 > 76.9 µM, O=C(NCc1ccco1)C1CCCCN1S(=O)(=O)c1ccc(F)cc1 (stereo not drawn) > 76.9 µM, COc1cc(C(c2nnnn2C2CCCC2)N2CCc3ccccc3C2)ccc1O (stereo not drawn), COC(=O)c1ccc(NC(=O)c2ccccc2NS(C)(=O)=O)cc1 > 76.9 µM, COC(=O)Cc1c(C)nc2nc[nH]n2c1=O > 76.9 µM, O=c1ccc2ccc(OCc3nnc(-c4ccccc4Br)o3)cc2o1 > 76.9 µM, Cc1cc(C)nc(SCCC(=O)N2CCOCC2)n1 > 76.9 µM, Cc1cc(Oc2ccc(-c3ccccc3)cc2)nc(N2CCOCC2)n1 > 76.9 µM, CCOC(=O)CCSc1nnc(-c2cccnc2)n1-c1ccccc1OC > 76.9 µM, Cc1ccsc1C(=O)OCC(=O)c1cc2ccccc2o1 > 76.9 µM, Cc1ccnc(N2CCCC(C(=O)Nc3cc(F)ccc3C)C2)n1 (stereo not drawn) > 76.9 µM, CC(=O)Nc1ccc2c(c1)nc(CCN1CCN(C)CC1)n2C > 76.9 µM, O=C(Nc1ccc(C2CCCCC2)cc1)C1CCCN(c2ncccn2)C1 (stereo not drawn) > 76.9 µM, Cc1ccc(C(=O)NC2CCCCCC2)o1 > 76.9 µM, O=C(N1CCCCCC1)N1CCN(C(=O)N2CCOCC2)CC1 > 76.9 µM, COc1ccc(S(=O)(=O)NC(C)C(=O)Nc2ccccc2F)cc1 (stereo not drawn) > 76.9 µM, CC(c1nnc(SCC(=O)Nc2sccc2C#N)n1-c1ccc(Cl)cc1)N(C)C (stereo not drawn) > 76.9 µM
